{
  "source": "the supplement of paper PMC8728848",
  "binders": {"B1": {"name": "Clrb (Mus musculus) (protein)", "chain": "ITGATKTEQIPVNKTYAACPQNWIGVENKCFYFSEYPSNWTFAQAFCMAQEAQLARFDNQDELNFLMRYKANFDSWIGLHRESSEHPWKWTDNTEYNNTIPIRGEERFAYLNNNGISSTRIYSLRMWICSKLNSYSLHCQTPFFPSGTKHHHHHHHHG"}},
  "assay_in_all_cases": "glycan array binding signal (z-score within array); higher = stronger binding",
  "conditions_in_all_cases": "glycan notation: IUPAC condensed, linker removed",
  "key": {"[1]": {"biological_target": "Neu5Ac(a2-6)Gal(b1-4)GlcNAc(b1-6)[Gal(b1-3)]GalNAc", "method_in_brief": "(§1)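 Glycan array binding is given as a within-array Z-score, which can be read as non-binding when negative. The arrays, 3228 of them, came from the Consortium for Functional Glycomics database and were retained only where the protein sequence was available. Z-scores were averaged across arrays of the same protein sequence at different concentrations or buffers and across linkers.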"}, "[2]": {"biological_target": "Neu5Ac(a2-6)Gal(b1-4)GlcNAc6S", "method_in_brief": "as §1"}, "Neu5Ac(a2-6)GalNAc": {"biological_target": "Neu5Ac(a2-6)GalNAc", "method_in_brief": "as §1"}, "[3]": {"biological_target": "Neu5Ac(a2-6)GalNAc(b1-4)GlcNAc", "method_in_brief": "as §1"}, "[4]": {"biological_target": "Neu5Ac(a2-6)GalNAc(b1-4)GlcNAc6S", "method_in_brief": "as §1"}, "[5]": {"biological_target": "Neu5Ac(a2-6)GlcNAc(b1-4)GlcNAc", "method_in_brief": "as §1"}, "[6]": {"biological_target": "Neu5Ac(a2-6)GlcNAc(b1-4)GlcNAc(b1-4)GlcNAc", "method_in_brief": "as §1"}, "Neu5Ac(a2-8)Neu5Ac": {"biological_target": "Neu5Ac(a2-8)Neu5Ac", "method_in_brief": "as §1"}, "[7]": {"biological_target": "Neu5Ac(a2-8)Neu5Ac(a2-3)Gal(b1-3)GalNAc(b1-4)[Neu5Ac(a2-3)]Gal(b1-4)Glc", "method_in_brief": "as §1"}, "[8]": {"biological_target": "Neu5Ac(a2-8)Neu5Ac(a2-3)Gal(b1-3)GalNAc(b1-4)[Neu5Ac(a2-8)Neu5Ac(a2-3)]Gal(b1-4)Glc", "method_in_brief": "as §1"}, "[9]": {"biological_target": "Neu5Ac(a2-8)Neu5Ac(a2-3)Gal(b1-4)Glc", "method_in_brief": "as §1"}, "[10]": {"biological_target": "Neu5Ac(a2-8)Neu5Ac(a2-3)Gal(b1-4)GlcNAc", "method_in_brief": "as §1"}, "[11]": {"biological_target": "Neu5Ac(a2-8)Neu5Ac(a2-3)[Gal(b1-3)GalNAc(b1-4)]Gal(b1-4)Glc", "method_in_brief": "as §1"}, "[12]": {"biological_target": "Neu5Ac(a2-8)Neu5Ac(a2-3)[GalNAc(b1-4)]Gal(b1-4)Glc", "method_in_brief": "as §1"}, "[13]": {"biological_target": "Neu5Ac(a2-8)Neu5Ac(a2-8)Neu5Ac", "method_in_brief": "as §1"}, "[14]": {"biological_target": "Neu5Ac(a2-8)Neu5Ac(a2-8)Neu5Ac(a2-3)Gal(b1-4)Glc", "method_in_brief": "as §1"}, "[15]": {"biological_target": "Neu5Ac(a2-8)Neu5Ac(a2-8)Neu5Ac(a2-3)[Gal(b1-3)GalNAc(b1-4)]Gal(b1-4)Glc", "method_in_brief": "as §1"}, "[16]": {"biological_target": "Neu5Ac(a2-8)Neu5Ac(a2-8)Neu5Ac(a2-3)[GalNAc(b1-4)]Gal(b1-4)Glc", "method_in_brief": "as §1"}, "[17]": {"biological_target": "Neu5Ac(a2-8)Neu5Ac(a2-8)Neu5Ac(a2-8)Neu5Ac(a2-3)[GalNAc(b1-4)]Gal(b1-4)Glc", "method_in_brief": "as §1"}, "[18]": {"biological_target": "Neu5Ac(a2-8)Neu5Gc(a2-3)Gal(b1-4)GlcNAc", "method_in_brief": "as §1"}, "[19]": {"biological_target": "Neu5Ac(b2-6)Gal(b1-4)GlcNAc", "method_in_brief": "as §1"}, "Neu5Ac(b2-6)GalNAc": {"biological_target": "Neu5Ac(b2-6)GalNAc", "method_in_brief": "as §1"}, "[20]": {"biological_target": "Neu5Ac9Ac(a2-3)Gal(b1-3)GlcNAc", "method_in_brief": "as §1"}, "[21]": {"biological_target": "Neu5Ac9Ac(a2-3)Gal(b1-4)GlcNAc", "method_in_brief": "as §1"}, "[22]": {"biological_target": "Neu5Ac9Ac(a2-6)Gal(b1-4)GlcNAc", "method_in_brief": "as §1"}, "[23]": {"biological_target": "Neu5Gc(a2-3)Gal(b1-3)GlcNAc", "method_in_brief": "as §1"}, "[24]": {"biological_target": "Neu5Gc(a2-3)Gal(b1-3)[Fuc(a1-4)]GlcNAc", "method_in_brief": "as §1"}, "Neu5Gc(a2-3)Gal(b1-4)Glc": {"biological_target": "Neu5Gc(a2-3)Gal(b1-4)Glc", "method_in_brief": "as §1"}, "[25]": {"biological_target": "Neu5Gc(a2-3)Gal(b1-4)GlcNAc", "method_in_brief": "as §1"}, "[26]": {"biological_target": "Neu5Gc(a2-3)Gal(b1-4)GlcNAc(b1-3)Gal(b1-4)GlcNAc(b1-2)Man(a1-3)[Neu5Gc(a2-3)Gal(b1-4)GlcNAc(b1-3)Gal(b1-4)GlcNAc(b1-2)Man(a1-6)]Man(b1-4)GlcNAc(b1-4)GlcNAc", "method_in_brief": "as §1"}, "[27]": {"biological_target": "Neu5Gc(a2-3)Gal(b1-4)[Fuc(a1-3)]GlcNAc", "method_in_brief": "as §1"}, "[28]": {"biological_target": "Neu5Gc(a2-6)Gal(b1-4)GlcNAc", "method_in_brief": "as §1"}, "Neu5Gc(a2-6)GalNAc": {"biological_target": "Neu5Gc(a2-6)GalNAc", "method_in_brief": "as §1"}, "[29]": {"biological_target": "Neu5Gc(a2-8)Neu5Ac(a2-3)Gal(b1-4)GlcNAc", "method_in_brief": "as §1"}, "[30]": {"biological_target": "Neu5Gc(a2-8)Neu5Gc(a2-3)Gal(b1-4)GlcNAc", "method_in_brief": "as §1"}, "[31]": {"biological_target": "Neu5Gc(a2-8)Neu5Gc(a2-3)Gal(b1-4)GlcNAc(b1-3)Gal(b1-4)GlcNAc", "method_in_brief": "as §1"}, "[32]": {"biological_target": "Neu5Gc(a2-8)Neu5Gc(a2-6)Gal(b1-4)GlcNAc", "method_in_brief": "as §1"}, "[33]": {"biological_target": "Neu5Gc(b2-6)Gal(b1-4)GlcNAc", "method_in_brief": "as §1"}},
  "note": "Some of the results follow.",
  "data": [
    {"binder": "B1", "values": [
      {"measurement": "glycan array binding signal (z-score)", "setting": "[1]", "value": -0.367},
      {"measurement": "glycan array binding signal (z-score)", "setting": "[2]", "value": -0.069},
      {"measurement": "glycan array binding signal (z-score)", "setting": "Neu5Ac(a2-6)GalNAc", "value": -0.508},
      {"measurement": "glycan array binding signal (z-score)", "setting": "[3]", "value": 4.69},
      {"measurement": "glycan array binding signal (z-score)", "setting": "[4]", "value": 0.022},
      {"measurement": "glycan array binding signal (z-score)", "setting": "[5]", "value": 0.909},
      {"measurement": "glycan array binding signal (z-score)", "setting": "[6]", "value": 1.68},
      {"measurement": "glycan array binding signal (z-score)", "setting": "Neu5Ac(a2-8)Neu5Ac", "value": -0.394},
      {"measurement": "glycan array binding signal (z-score)", "setting": "[7]", "value": 0.234},
      {"measurement": "glycan array binding signal (z-score)", "setting": "[8]", "value": -0.203},
      {"measurement": "glycan array binding signal (z-score)", "setting": "[9]", "value": -0.322},
      {"measurement": "glycan array binding signal (z-score)", "setting": "[10]", "value": -0.297},
      {"measurement": "glycan array binding signal (z-score)", "setting": "[11]", "value": -0.261},
      {"measurement": "glycan array binding signal (z-score)", "setting": "[12]", "value": -0.312},
      {"measurement": "glycan array binding signal (z-score)", "setting": "[13]", "value": -0.334},
      {"measurement": "glycan array binding signal (z-score)", "setting": "[14]", "value": -0.43},
      {"measurement": "glycan array binding signal (z-score)", "setting": "[15]", "value": -0.421},
      {"measurement": "glycan array binding signal (z-score)", "setting": "[16]", "value": -0.358},
      {"measurement": "glycan array binding signal (z-score)", "setting": "[17]", "value": -0.449},
      {"measurement": "glycan array binding signal (z-score)", "setting": "[18]", "value": -0.465},
      {"measurement": "glycan array binding signal (z-score)", "setting": "[19]", "value": -0.294},
      {"measurement": "glycan array binding signal (z-score)", "setting": "Neu5Ac(b2-6)GalNAc", "value": 0.034},
      {"measurement": "glycan array binding signal (z-score)", "setting": "[20]", "value": -0.221},
      {"measurement": "glycan array binding signal (z-score)", "setting": "[21]", "value": -0.34},
      {"measurement": "glycan array binding signal (z-score)", "setting": "[22]", "value": -0.332},
      {"measurement": "glycan array binding signal (z-score)", "setting": "[23]", "value": -0.384},
      {"measurement": "glycan array binding signal (z-score)", "setting": "[24]", "value": -0.2},
      {"measurement": "glycan array binding signal (z-score)", "setting": "Neu5Gc(a2-3)Gal(b1-4)Glc", "value": -0.311},
      {"measurement": "glycan array binding signal (z-score)", "setting": "[25]", "value": -0.419},
      {"measurement": "glycan array binding signal (z-score)", "setting": "[26]", "value": -0.348},
      {"measurement": "glycan array binding signal (z-score)", "setting": "[27]", "value": -0.434},
      {"measurement": "glycan array binding signal (z-score)", "setting": "[28]", "value": -0.137},
      {"measurement": "glycan array binding signal (z-score)", "setting": "Neu5Gc(a2-6)GalNAc", "value": -0.377},
      {"measurement": "glycan array binding signal (z-score)", "setting": "[29]", "value": -0.469},
      {"measurement": "glycan array binding signal (z-score)", "setting": "[30]", "value": -0.227},
      {"measurement": "glycan array binding signal (z-score)", "setting": "[31]", "value": -0.287},
      {"measurement": "glycan array binding signal (z-score)", "setting": "[32]", "value": -0.334},
      {"measurement": "glycan array binding signal (z-score)", "setting": "[33]", "value": -0.401}
    ]}
  ]
}
